# Source: PubChem BioAssay AID651820 (National Center for Advancing Translational Sciences (NCATS), 2012)
# In all, about 340,000 compounds went through this assay and about 12,000 (3.5%) were called active. Inconclusive means that the source gave no clear call. Such entries were picked first, then a sample of the others. Calls follow the shape of the dose curve; as a rule, active = well fitted inhibition curve with a large enough effect; inconclusive = small, poorly fitted or top-dose-only effect, or another doubt; inactive = no such curve, though single readings can be large or run the other way. Potencies of inconclusive entries are left out as doubtful fits.
# Test: qHTS Assay for Inhibitors of Hepatitis C Virus (HCV)
# Conditions: Huh7.5.1 HCVcc-Cre (HCVcc is cell-culture hepatitis C virus) infection, luciferase reporter, 44 h; activity change, negative = inhibition: at 41.8 µM (top of the series) unless noted
# In short: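 Antiviral activity was scored by luciferase reporter output from cells infected with HCVcc-Cre (~0.5 moi) in presence of compound, 44 h infection period, cells seeded 1,000/well 4 h prior.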
# % is scaled to controls: 0 for no effect and ±100 for the full control effect; potency is read from the fitted curve at half-maximal effect; tags tell the direction and shape of the fitted curve.
SMILES,Potency,"activity change, negative = inhibition"
Cc1cc2c(cc1C)C(c1cccc([N+](=O)[O-])c1)CC(=O)N2 (configuration not stated),"inconclusive [inhibitor, single point]",
CC1Cc2ccccc2N1C(=O)c1cnc2ccccn2c1=O (configuration not stated),"inconclusive [inhibitor, single point]",
COc1ccc2nc(NCc3ccccc3)[nH]c2c1,"inconclusive [inhibitor, single point]",
Cc1ccccc1CNc1ccc(C(CC(N)=O)NC(=O)c2ccccc2)cc1[N+](=O)[O-] (configuration not stated),active: 11.2 µM,
O=C(NC1CCSc2ccccc21)c1cccc(S(=O)(=O)N2CCOCC2)c1 (configuration not stated),"inconclusive [inhibitor, partial curve]",
CCOc1c(C)cc(-c2ncccc2O)cc1C,"inconclusive [inhibitor, partial curve]",
CN(C)CC/C=C1/c2ccccc2Sc2c(O)cc(Cl)cc21,"inconclusive [inhibitor, single point]",
CCCCc1ccc(NC2=NCCCS2)cc1,"inconclusive [inhibitor, single point]",
NC1=NC(=O)/C(=C/c2cn(Cc3ccccc3)c3ccccc23)S1,"inconclusive [inhibitor, single point]",
COCCCN(C(=O)c1ccccc1)c1nc(-c2ccc(OC)cc2)cs1,active: 12.6 µM,
CCN(CC1COc2ccccc2O1)S(=O)(=O)c1ccc(C)cc1 (configuration not stated),"inconclusive [inhibitor, partial curve]",
COc1ccccc1CNC(=O)C(=O)NCC1OCCN1S(=O)(=O)c1ccc(Br)cc1 (configuration not stated),"inconclusive [inhibitor, single point]",
COc1ccc(C(=O)NCC(=O)OCCOc2ccc(Cl)cc2)cc1OC,,inconclusive: -33.6% [inhibitor]
COc1ccc(OC)c(NC(=O)NCCc2c[nH]c3ccccc23)c1,"inconclusive [inhibitor, partial curve]",
COC(=O)c1ccccc1NC(=O)CSc1nncn1-c1cccnc1,,inactive: 3.67%
Oc1ccc(-c2cn3ccccc3n2)cc1O,"inconclusive [inhibitor, single point]",
Cc1ccc(OCCCn2cc(C#N)c3ccccc32)cc1,,inactive: 4.84%
O=C(NCc1nc2ccccc2[nH]1)C1=C[C@@H](c2ccc(Br)cc2)C[C@@H](OCCCCO)O1,"inconclusive [inhibitor, partial curve, poor fit]",
COc1ccc(N=C(C)C2=C(O)c3ccccc3C2=O)cc1,,inactive: -18.8%
Cc1c(C)n(C(=O)CN2CCN(c3ccccn3)CC2)c2ccccc12,"inconclusive [inhibitor, partial curve]",
O=S(=O)(CCN1CCOCC1)c1ccc(Oc2ccc(S(=O)(=O)CCN3CCOCC3)cc2)cc1,active: 3.55 µM,

SMILES,Potency,"activity change, negative = inhibition"
Cc1oc2c(c1C(=O)NCc1cc(C(=O)O)co1)CCCC2,,inactive: 14.8%
COC(=O)[C@@]12CCCCN1[C@H](c1ccc(-c3ccc(F)cc3)cc1)[C@@H]1C(=O)N(C)C(=O)[C@@H]12,,inactive: -18.9%
CNc1ccccc1C(C)(C)c1cc(-c2cccc(Br)c2)no1,"inconclusive [inhibitor, single point]",
COc1ccc(-c2nnc(SCC(=O)N(Cc3ccccc3)C(C)(C)C)o2)cc1OC,"inconclusive [inhibitor, partial curve]",
CCC(=O)c1ccc(OCC(=O)OCC(=O)NCc2cccs2)cc1,"inconclusive [inhibitor, partial curve]",
CCN(CC)S(=O)(=O)c1ccc(N2CCOCC2)c(NC(=O)c2ccc3c(c2)OCCO3)c1,"inconclusive [inhibitor, partial curve]",
Cc1cc(C(=O)N2CCCC(C(=O)c3cccc(C(F)(F)F)c3)C2)n[nH]1 (configuration not stated),"inconclusive [inhibitor, single point]",
COC(=O)C1=C(c2cccc(OCc3ccccc3)c2)C[C@@H]2CC[C@H]1N2C(=O)NCc1ccccc1C(F)(F)F,"inconclusive [inhibitor, partial curve]",
COc1cc(OC)cc(C(=O)Nc2ncc3c(n2)CC(C)(C)CC3=O)c1,"inconclusive [inhibitor, single point]",
N#CC1=C2SCC(O)(c3ccccc3)N2C(=O)CC1c1ccccc1F (configuration not stated),"inconclusive [inhibitor, single point]",
COc1cccc(-c2cc(C(=O)N3CCN(S(=O)(=O)c4ccc(Br)cc4)CC3)[nH]n2)c1,,inactive: 9.19%
NC1=NC2(CCCCC2)n2c(nc3ccccc32)N1,"inconclusive [inhibitor, single point]",
Cc1ccccc1-c1ccc(=O)n(CC(=O)Nc2ccc(-n3cnnn3)cc2)n1,"inconclusive [inhibitor, single point]",
O=c1oc2ccccc2cc1-c1cn(-c2ccccc2)c(=S)[nH]1,"inconclusive [inhibitor, partial curve]",
Cc1nnc(N2CCC(C(=O)N3CCCCC3)CC2)c2nn(-c3ccc(Cl)cc3)c(C)c12,"inconclusive [inhibitor, partial curve]",
O=C(CSc1nnc(-c2cc3ccccc3cc2O)n1Cc1ccco1)N1CCc2ccccc2C1,"inconclusive [inhibitor, partial curve]",
COc1cccc(C(=O)Nc2nnc(Cc3ccc(OC)c(OC)c3)s2)c1,,inactive: 9.33%
O=C1CN(C(=O)c2cccc(Br)c2)c2ccccc2N1,"inconclusive [inhibitor, partial curve]",
O=C(O)CCSc1nnc(-c2ccc3c(c2)OCO3)o1,,inactive: -5.19%
CCCC(=O)OC1CC(C)N(C(=O)c2ccccc2)c2ccc(C)cc21 (configuration not stated),"inconclusive [inhibitor, single point]",
O=C(/C=C/c1ccc(O)c(O)c1)O[C@@H]1C[C@](O)(C(=O)O)C[C@@H](O)[C@H]1O,"inconclusive [inhibitor, single point]",
